# Some of the results follow. Rule as the data show it: only hits are listed; in these data all have Qbind below 0.67. Most values come without repeats; read them as rough.
# What was measured:
# Experiment in all cases: Qbind: 19F CPMG 200 ms/0 ms integral ratio with target relative to without target; higher = weaker binding (less relaxation enhancement by target)
# PtkA (30 kDA) = test system: PtkA (30 kDA)
# [1] = test system: cKit G-quadruplex (24 nt)
# T7 RNAP (100kDA) = test system: T7 RNAP (100kDA)
# [2] = test system: TPP-sensing riboswitch tenA
# [3] = test system: TPP-sensing riboswitch thiM (80)
# [4] = test system: Tel26 G-quadruplex (26 nt)
# [5] = test system: cMyc G-quadruplex (22 nt)
# [6] = test system: wtTel26 G-quadruplex (26 nt); conditions: 19F shift (ppm): -112.292
# ZMP-sensing riboswitch = test system: ZMP-sensing riboswitch
structure (smiles),measurement,setting,value
COC(=O)N1CCN(c2ccc(F)cc2)CC1,Qbind: 19F CPMG 200 ms/0 ms integral ratio,PtkA (30 kDA); 19F shift (ppm): -121.82,active: 0.199
same,Qbind: 19F CPMG 200 ms/0 ms integral ratio,[1]; 19F shift (ppm): -121.8432,active: 0.602
CC(=O)Nc1cccc(F)c1C(=O)O,Qbind: 19F CPMG 200 ms/0 ms integral ratio,T7 RNAP (100kDA); 19F shift (ppm): -115.9533,active: 0.323
CNC(=O)NCc1c(F)cccc1Cl,Qbind: 19F CPMG 200 ms/0 ms integral ratio,PtkA (30 kDA); 19F shift (ppm): -114.7383,active: 0.106
same,Qbind: 19F CPMG 200 ms/0 ms integral ratio,[2]; 19F shift (ppm): -114.6748,active: 0.626
same,Qbind: 19F CPMG 200 ms/0 ms integral ratio,[3]; 19F shift (ppm): -114.6748,active: 0.246
Cl.N[C@@H]1CCCN(C(=O)CCC(F)(F)F)C1,Qbind: 19F CPMG 200 ms/0 ms integral ratio,[2]; 19F shift (ppm): -112.2375,active: 0.576
same,Qbind: 19F CPMG 200 ms/0 ms integral ratio,[4]; 19F shift (ppm): -112.292,active: 0.195
same,Qbind: 19F CPMG 200 ms/0 ms integral ratio,[1]; 19F shift (ppm): -112.292,active: 0.387
same,Qbind: 19F CPMG 200 ms/0 ms integral ratio,[5]; 19F shift (ppm): -112.292,active: 0.0153
same,Qbind: 19F CPMG 200 ms/0 ms integral ratio,[6],active: 0.512
O=C(C1CC1)N1CCN(c2ccc(F)cc2)CC1,Qbind: 19F CPMG 200 ms/0 ms integral ratio,PtkA (30 kDA); 19F shift (ppm): -121.8704,active: 0.223
same,Qbind: 19F CPMG 200 ms/0 ms integral ratio,T7 RNAP (100kDA); 19F shift (ppm): -123.0852,active: -0.293
O=C(NCCc1ccc(F)cc1)c1ccco1,Qbind: 19F CPMG 200 ms/0 ms integral ratio,PtkA (30 kDA); 19F shift (ppm): -117.3831,active: 0.24
same,Qbind: 19F CPMG 200 ms/0 ms integral ratio,T7 RNAP (100kDA); 19F shift (ppm): -117.436,active: 0.0476
O=C(Cc1ccc(F)cc1)NC1CCCCC1,Qbind: 19F CPMG 200 ms/0 ms integral ratio,PtkA (30 kDA); 19F shift (ppm): -116.2645,active: -0.0214
same,Qbind: 19F CPMG 200 ms/0 ms integral ratio,T7 RNAP (100kDA); 19F shift (ppm): -116.29,active: 0.246
O=C(c1c(F)cccc1F)N1CCCCCC1,Qbind: 19F CPMG 200 ms/0 ms integral ratio,[4]; 19F shift (ppm): -112.6352,active: 0.267
same,Qbind: 19F CPMG 200 ms/0 ms integral ratio,[1]; 19F shift (ppm): -112.6352,active: 0.149
same,Qbind: 19F CPMG 200 ms/0 ms integral ratio,[5]; 19F shift (ppm): -112.672,active: 0.319
CC(=O)c1ccc(OC(F)F)cc1,Qbind: 19F CPMG 200 ms/0 ms integral ratio,T7 RNAP (100kDA); 19F shift (ppm): -82.8327,active: 0.318
same,Qbind: 19F CPMG 200 ms/0 ms integral ratio,[2]; 19F shift (ppm): -82.8327,active: 0.105
same,Qbind: 19F CPMG 200 ms/0 ms integral ratio,ZMP-sensing riboswitch; 19F shift (ppm): -82.8327,active: 0.216
NC(=O)N1CCN(c2ccc(F)cc2)CC1,Qbind: 19F CPMG 200 ms/0 ms integral ratio,PtkA (30 kDA); 19F shift (ppm): -121.8417,active: 0.252
same,Qbind: 19F CPMG 200 ms/0 ms integral ratio,ZMP-sensing riboswitch; 19F shift (ppm): -121.7649,active: 0.512
C[C@@H](CO)Nc1ncc(Cl)cc1F,Qbind: 19F CPMG 200 ms/0 ms integral ratio,[2]; 19F shift (ppm): -136.286,active: 0.608
Cc1cc(F)ccc1CS(N)(=O)=O,Qbind: 19F CPMG 200 ms/0 ms integral ratio,T7 RNAP (100kDA); 19F shift (ppm): -113.7396,active: 0.302
same,Qbind: 19F CPMG 200 ms/0 ms integral ratio,[3]; 19F shift (ppm): -113.763,active: 0.555
same,Qbind: 19F CPMG 200 ms/0 ms integral ratio,[1]; 19F shift (ppm): -113.7698,active: 0.644
CNC(=O)c1c(-c2ccc(F)cc2)noc1C,Qbind: 19F CPMG 200 ms/0 ms integral ratio,T7 RNAP (100kDA); 19F shift (ppm): -110.3505,active: 0.141

# Source: the supplement of paper PMC7436455
